Measured values as given in publication PMC12820563, “FoxP3 forms a head-to-head dimer in vivo and stabilizes its multimerization on adjacent microsatellites”.
The other results are listed elsewhere or left out.

Molecular target: T1, MBP-FoxP1dN (Mus musculus, UniProt P58462 326-579)
T1 sequence: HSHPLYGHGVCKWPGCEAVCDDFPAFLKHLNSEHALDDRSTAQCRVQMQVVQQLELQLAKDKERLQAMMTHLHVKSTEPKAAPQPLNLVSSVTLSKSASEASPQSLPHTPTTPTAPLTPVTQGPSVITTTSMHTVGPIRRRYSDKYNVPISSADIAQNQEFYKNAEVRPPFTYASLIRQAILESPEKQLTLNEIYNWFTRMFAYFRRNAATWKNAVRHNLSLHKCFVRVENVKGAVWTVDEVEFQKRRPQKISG
Assay: PD-seq (MBP pull-down with sequencing); 20 mM Tris-HCl pH 7.5, 100 mM NaCl, 1.5 mM MgCl2, 0.4 uM protein, 0.1 uM dsDNA library, 30 min, room temperature, amylose pull-down; high values mean tight binding
Conditions: protein: recombinant; tags: His6-MBP; chain copies: 2; dsDNA, one strand shown
Outline: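 Protein and DNA were mixed at 0.4 µM and 0.1 µM and held for 30 min at room temperature in Tris pH 7.5 buffer with NaCl and MgCl2; the protein was a His6-MBP-tagged, N-terminally truncated mouse FoxP3 or FoxP1 fragment from E. coli, and the DNA a Klenow-filled double-stranded degenerate library. Amylose resin captured the complexes, which were washed three times. Binding is read as reads-per-million enrichment of pull-down versus input after Illumina sequencing, with replicates pooled.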

Sequence | binding signal
GATGATTGTTCTCCCAGCTGATGAATTGGGTCTCTCGAGTAAACAAATTTTCCTAATCTTTCTGTTCAAGCGCCATCTAC | 0.824 RPM ratio (pull-down/input)
GATGATTGTTCTCCCAGCTGATGAATTGCGTAAGTCGAGTAAACAAATTTTCCTAATCTTTCTGTTCAAGCGCCATCTAC | 1.02 RPM ratio (pull-down/input)
GATGATTGTTCTCCCAGCTGATGAATTTCCGGATTCGAGTAAACAAATTTTCCTAATCTTTCTGTTCAAGCGCCATCTAC | 0.821 RPM ratio (pull-down/input)
GATGATTGTTCTCCCAGCTGATGAATTCGGACCATCGAGTAAACAAATTTTCCTAATCTTTCTGTTCAAGCGCCATCTAC | 0.851 RPM ratio (pull-down/input)
GATGATTGTTCTCCCAGCTGATGAATTATAGCTTTCGAGTAAACAAATTTTCCTAATCTTTCTGTTCAAGCGCCATCTAC | 1.03 RPM ratio (pull-down/input)
GATGATTGTTCTCCCAGCTGATGAATTCCGCTACTCGAGTAAACAAATTTTCCTAATCTTTCTGTTCAAGCGCCATCTAC | 0.836 RPM ratio (pull-down/input)
GATGATTGTTCTCCCAGCTGATGAATTATAGATATCGAGTAAACAAATTTTCCTAATCTTTCTGTTCAAGCGCCATCTAC | 1.03 RPM ratio (pull-down/input)
GATGATTGTTCTCCCAGCTGATGAATTCTGAGCTTCGAGTAAACAAATTTTCCTAATCTTTCTGTTCAAGCGCCATCTAC | 0.821 RPM ratio (pull-down/input)
GATGATTGTTCTCCCAGCTGATGAATTGATATTCTCGAGTAAACAAATTTTCCTAATCTTTCTGTTCAAGCGCCATCTAC | 1.06 RPM ratio (pull-down/input)
GATGATTGTTCTCCCAGCTGATGAATTAGCATACTCGAGTAAACAAATTTTCCTAATCTTTCTGTTCAAGCGCCATCTAC | 1.02 RPM ratio (pull-down/input)
GATGATTGTTCTCCCAGCTGATGAATTCTAAGAGTCGAGTAAACAAATTTTCCTAATCTTTCTGTTCAAGCGCCATCTAC | 0.872 RPM ratio (pull-down/input)
GATGATTGTTCTCCCAGCTGATGAATTGTCGCGTTCGAGTAAACAAATTTTCCTAATCTTTCTGTTCAAGCGCCATCTAC | 1.09 RPM ratio (pull-down/input)
GATGATTGTTCTCCCAGCTGATGAATTCACTGAATCGAGTAAACAAATTTTCCTAATCTTTCTGTTCAAGCGCCATCTAC | 0.855 RPM ratio (pull-down/input)
GATGATTGTTCTCCCAGCTGATGAATTAATAGTATCGAGTAAACAAATTTTCCTAATCTTTCTGTTCAAGCGCCATCTAC | 1.07 RPM ratio (pull-down/input)
GATGATTGTTCTCCCAGCTGATGAATTCATGACTTCGAGTAAACAAATTTTCCTAATCTTTCTGTTCAAGCGCCATCTAC | 0.828 RPM ratio (pull-down/input)
GATGATTGTTCTCCCAGCTGATGAATTCGAGTGTTCGAGTAAACAAATTTTCCTAATCTTTCTGTTCAAGCGCCATCTAC | 0.892 RPM ratio (pull-down/input)
GATGATTGTTCTCCCAGCTGATGAATTCATGCGTTCGAGTAAACAAATTTTCCTAATCTTTCTGTTCAAGCGCCATCTAC | 1.02 RPM ratio (pull-down/input)
GATGATTGTTCTCCCAGCTGATGAATTGCTACCGTCGAGTAAACAAATTTTCCTAATCTTTCTGTTCAAGCGCCATCTAC | 1.07 RPM ratio (pull-down/input)
GATGATTGTTCTCCCAGCTGATGAATTAAGATCTTCGAGTAAACAAATTTTCCTAATCTTTCTGTTCAAGCGCCATCTAC | 0.868 RPM ratio (pull-down/input)
GATGATTGTTCTCCCAGCTGATGAATTTTTTCAATCGAGTAAACAAATTTTCCTAATCTTTCTGTTCAAGCGCCATCTAC | 1.03 RPM ratio (pull-down/input)
GATGATTGTTCTCCCAGCTGATGAATTGAAGATGTCGAGTAAACAAATTTTCCTAATCTTTCTGTTCAAGCGCCATCTAC | 0.941 RPM ratio (pull-down/input)

Sequence | binding signal
GATGATTGTTCTCCCAGCTGATGAATTGCGCAATTCGAGTAAACAAATTTTCCTAATCTTTCTGTTCAAGCGCCATCTAC | 1.29 RPM ratio (pull-down/input)
GATGATTGTTCTCCCAGCTGATGAATTTCAACTGTCGAGTAAACAAATTTTCCTAATCTTTCTGTTCAAGCGCCATCTAC | 0.785 RPM ratio (pull-down/input)
GATGATTGTTCTCCCAGCTGATGAATTATAAATTTCGAGTAAACAAATTTTCCTAATCTTTCTGTTCAAGCGCCATCTAC | 0.978 RPM ratio (pull-down/input)
GATGATTGTTCTCCCAGCTGATGAATTTATCTAGTCGAGTAAACAAATTTTCCTAATCTTTCTGTTCAAGCGCCATCTAC | 1.12 RPM ratio (pull-down/input)
GATGATTGTTCTCCCAGCTGATGAATTATCTACTTCGAGTAAACAAATTTTCCTAATCTTTCTGTTCAAGCGCCATCTAC | 1.05 RPM ratio (pull-down/input)
GATGATTGTTCTCCCAGCTGATGAATTACATATTTCGAGTAAACAAATTTTCCTAATCTTTCTGTTCAAGCGCCATCTAC | 1.31 RPM ratio (pull-down/input)
GATGATTGTTCTCCCAGCTGATGAATTATCACTTTCGAGTAAACAAATTTTCCTAATCTTTCTGTTCAAGCGCCATCTAC | 1.03 RPM ratio (pull-down/input)
GATGATTGTTCTCCCAGCTGATGAATTCTAACGCTCGAGTAAACAAATTTTCCTAATCTTTCTGTTCAAGCGCCATCTAC | 0.98 RPM ratio (pull-down/input)
GATGATTGTTCTCCCAGCTGATGAATTCGGGTCTTCGAGTAAACAAATTTTCCTAATCTTTCTGTTCAAGCGCCATCTAC | 0.811 RPM ratio (pull-down/input)
GATGATTGTTCTCCCAGCTGATGAATTAGCTTCCTCGAGTAAACAAATTTTCCTAATCTTTCTGTTCAAGCGCCATCTAC | 0.821 RPM ratio (pull-down/input)
GATGATTGTTCTCCCAGCTGATGAATTGTCAATATCGAGTAAACAAATTTTCCTAATCTTTCTGTTCAAGCGCCATCTAC | 2.23 RPM ratio (pull-down/input)
GATGATTGTTCTCCCAGCTGATGAATTGGGACAGTCGAGTAAACAAATTTTCCTAATCTTTCTGTTCAAGCGCCATCTAC | 0.879 RPM ratio (pull-down/input)
GATGATTGTTCTCCCAGCTGATGAATTATCTCTCTCGAGTAAACAAATTTTCCTAATCTTTCTGTTCAAGCGCCATCTAC | 0.93 RPM ratio (pull-down/input)
GATGATTGTTCTCCCAGCTGATGAATTGGGTCTTTCGAGTAAACAAATTTTCCTAATCTTTCTGTTCAAGCGCCATCTAC | 0.834 RPM ratio (pull-down/input)
GATGATTGTTCTCCCAGCTGATGAATTCATTATGTCGAGTAAACAAATTTTCCTAATCTTTCTGTTCAAGCGCCATCTAC | 0.872 RPM ratio (pull-down/input)
GATGATTGTTCTCCCAGCTGATGAATTTTTTCCATCGAGTAAACAAATTTTCCTAATCTTTCTGTTCAAGCGCCATCTAC | 0.966 RPM ratio (pull-down/input)
GATGATTGTTCTCCCAGCTGATGAATTTGTACTTTCGAGTAAACAAATTTTCCTAATCTTTCTGTTCAAGCGCCATCTAC | 1.17 RPM ratio (pull-down/input)
GATGATTGTTCTCCCAGCTGATGAATTACCCACCTCGAGTAAACAAATTTTCCTAATCTTTCTGTTCAAGCGCCATCTAC | 0.949 RPM ratio (pull-down/input)
GATGATTGTTCTCCCAGCTGATGAATTCGTGACGTCGAGTAAACAAATTTTCCTAATCTTTCTGTTCAAGCGCCATCTAC | 0.913 RPM ratio (pull-down/input)
GATGATTGTTCTCCCAGCTGATGAATTGGTCGTGTCGAGTAAACAAATTTTCCTAATCTTTCTGTTCAAGCGCCATCTAC | 0.942 RPM ratio (pull-down/input)
GATGATTGTTCTCCCAGCTGATGAATTAATATGCTCGAGTAAACAAATTTTCCTAATCTTTCTGTTCAAGCGCCATCTAC | 1.11 RPM ratio (pull-down/input)

Sequence | binding signal
GATGATTGTTCTCCCAGCTGATGAATTAAGCCCATCGAGTAAACAAATTTTCCTAATCTTTCTGTTCAAGCGCCATCTAC | 0.894 RPM ratio (pull-down/input)
GATGATTGTTCTCCCAGCTGATGAATTCGTTCACTCGAGTAAACAAATTTTCCTAATCTTTCTGTTCAAGCGCCATCTAC | 0.968 RPM ratio (pull-down/input)
GATGATTGTTCTCCCAGCTGATGAATTATGGCTTTCGAGTAAACAAATTTTCCTAATCTTTCTGTTCAAGCGCCATCTAC | 0.964 RPM ratio (pull-down/input)
GATGATTGTTCTCCCAGCTGATGAATTTTACTCATCGAGTAAACAAATTTTCCTAATCTTTCTGTTCAAGCGCCATCTAC | 0.957 RPM ratio (pull-down/input)
GATGATTGTTCTCCCAGCTGATGAATTTTAGCCATCGAGTAAACAAATTTTCCTAATCTTTCTGTTCAAGCGCCATCTAC | 0.953 RPM ratio (pull-down/input)
GATGATTGTTCTCCCAGCTGATGAATTCGCGACGTCGAGTAAACAAATTTTCCTAATCTTTCTGTTCAAGCGCCATCTAC | 0.832 RPM ratio (pull-down/input)
GATGATTGTTCTCCCAGCTGATGAATTTTTAATTTCGAGTAAACAAATTTTCCTAATCTTTCTGTTCAAGCGCCATCTAC | 1.24 RPM ratio (pull-down/input)
GATGATTGTTCTCCCAGCTGATGAATTTAGATCATCGAGTAAACAAATTTTCCTAATCTTTCTGTTCAAGCGCCATCTAC | 1.07 RPM ratio (pull-down/input)
GATGATTGTTCTCCCAGCTGATGAATTCGCGTTATCGAGTAAACAAATTTTCCTAATCTTTCTGTTCAAGCGCCATCTAC | 1.02 RPM ratio (pull-down/input)
GATGATTGTTCTCCCAGCTGATGAATTGAACACCTCGAGTAAACAAATTTTCCTAATCTTTCTGTTCAAGCGCCATCTAC | 0.851 RPM ratio (pull-down/input)
GATGATTGTTCTCCCAGCTGATGAATTGGTACGCTCGAGTAAACAAATTTTCCTAATCTTTCTGTTCAAGCGCCATCTAC | 0.998 RPM ratio (pull-down/input)
GATGATTGTTCTCCCAGCTGATGAATTCCGCCACTCGAGTAAACAAATTTTCCTAATCTTTCTGTTCAAGCGCCATCTAC | 0.908 RPM ratio (pull-down/input)
GATGATTGTTCTCCCAGCTGATGAATTAAGTGGATCGAGTAAACAAATTTTCCTAATCTTTCTGTTCAAGCGCCATCTAC | 0.94 RPM ratio (pull-down/input)
GATGATTGTTCTCCCAGCTGATGAATTTTATTCCTCGAGTAAACAAATTTTCCTAATCTTTCTGTTCAAGCGCCATCTAC | 0.973 RPM ratio (pull-down/input)
GATGATTGTTCTCCCAGCTGATGAATTTTACCGCTCGAGTAAACAAATTTTCCTAATCTTTCTGTTCAAGCGCCATCTAC | 0.864 RPM ratio (pull-down/input)
GATGATTGTTCTCCCAGCTGATGAATTACGCTAGTCGAGTAAACAAATTTTCCTAATCTTTCTGTTCAAGCGCCATCTAC | 1.01 RPM ratio (pull-down/input)
GATGATTGTTCTCCCAGCTGATGAATTATCAGATTCGAGTAAACAAATTTTCCTAATCTTTCTGTTCAAGCGCCATCTAC | 1.01 RPM ratio (pull-down/input)
GATGATTGTTCTCCCAGCTGATGAATTTTGTAAATCGAGTAAACAAATTTTCCTAATCTTTCTGTTCAAGCGCCATCTAC | 1.5 RPM ratio (pull-down/input)
GATGATTGTTCTCCCAGCTGATGAATTAGCACCTTCGAGTAAACAAATTTTCCTAATCTTTCTGTTCAAGCGCCATCTAC | 0.916 RPM ratio (pull-down/input)
GATGATTGTTCTCCCAGCTGATGAATTGCCGGGATCGAGTAAACAAATTTTCCTAATCTTTCTGTTCAAGCGCCATCTAC | 0.867 RPM ratio (pull-down/input)
GATGATTGTTCTCCCAGCTGATGAATTTTCGAACTCGAGTAAACAAATTTTCCTAATCTTTCTGTTCAAGCGCCATCTAC | 0.878 RPM ratio (pull-down/input)
